Test results reported in US20210238308A1 (Chugai, published 2021).

How the values were obtained:
Assay in all cases: SPR, Protein L capture
[1] = biological target: T1, PRYSPRY domain of human TRIM21 with N-terminal 6xHis tag (human)
T1 construct: Expressed in E. coli; also called hTRIM21; human TRIM21.PRYSPRY
T1 chain: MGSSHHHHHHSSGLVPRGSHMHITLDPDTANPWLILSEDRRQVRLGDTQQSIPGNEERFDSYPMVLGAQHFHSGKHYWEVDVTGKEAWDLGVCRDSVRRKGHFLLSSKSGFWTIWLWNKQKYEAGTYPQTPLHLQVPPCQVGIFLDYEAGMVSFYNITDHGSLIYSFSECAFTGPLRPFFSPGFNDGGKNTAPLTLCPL

[2] = biological target: T2, PRYSPRY domain of mouse TRIM21 with N-terminal 6xHis tag (mouse)
T2 construct: Expressed in E. coli; also called mTRIM21; mouse TRIM21.PRYSPRY
T2 chain: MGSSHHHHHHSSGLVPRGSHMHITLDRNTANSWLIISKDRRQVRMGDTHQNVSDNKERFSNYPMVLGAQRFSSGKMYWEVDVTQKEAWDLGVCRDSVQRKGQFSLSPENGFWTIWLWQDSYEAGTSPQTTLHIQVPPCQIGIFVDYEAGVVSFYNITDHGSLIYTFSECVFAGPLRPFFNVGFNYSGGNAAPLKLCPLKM

human FcRn = biological target: T3, human FcRn (human, UniProt P55899 in part; P61769 in part, limits assumed)
T3 construct: also called hFcRn

human FcRn, sequence (P55899 24-290 limits assumed, form in doubt, chain 1 of 2): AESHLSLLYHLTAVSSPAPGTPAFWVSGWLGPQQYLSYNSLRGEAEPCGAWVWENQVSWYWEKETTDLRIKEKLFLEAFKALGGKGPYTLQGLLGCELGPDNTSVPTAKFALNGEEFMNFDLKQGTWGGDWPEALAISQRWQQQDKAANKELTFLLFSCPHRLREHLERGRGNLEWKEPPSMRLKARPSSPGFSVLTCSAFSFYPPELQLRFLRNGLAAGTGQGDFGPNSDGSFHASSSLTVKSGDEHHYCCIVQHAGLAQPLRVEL
human FcRn, sequence (P61769 21-119 limits assumed, form in doubt, chain 2 of 2, further chain): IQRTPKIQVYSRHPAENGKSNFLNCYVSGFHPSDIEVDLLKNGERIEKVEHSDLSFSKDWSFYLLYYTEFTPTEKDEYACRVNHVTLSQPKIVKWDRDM

B1: MRAH-G1d/MRAL-KT0 N434I (antibody, human IgG1, kappa)
heavy: QVQLQESGPGLVRPSQTLSLTCTVSGYSITSDHAWSWVRQPPGRGLEWIGYISYSGITTYNPSLKSRVTMLRDTSKNQFSLRLSSVTAADTAVYYCARSLARTTAMDYWGQGSLVTVSS[human IgG1 constant region with N434I (EU numbers) omitted here]
light: DIQMTQSPSSLSASVGDRVTITCRASQDISSYLNWYQQKPGKAPKLLIYYTSRLHSGVPSRFSGSGSGTDFTFTISSLQPEDIATYYCQQGNTLPYTFGQGTKVEIKRTVAAPSVFIFPPSDEQLKSGTASVVCLLNNFYPREAKVQWKVDNALQSGNSQESVTEQDSKDSTYSLSSTLTLSKADYEKHKVYACEVTHQGLSSPVTKSFNRGEC
notes: copies: 2 + 2
hTRIM21 binding level ratio (variant/control antibody) [1]: 0.632 | mTRIM21 binding level ratio (variant/control antibody) [2]: 0.569 | hFcRn binding level ratio (variant/control antibody) (human FcRn): 0.03

B2: MRAH-G1d/MRAL-KT0 N434R (antibody, human IgG1, kappa)
heavy: QVQLQESGPGLVRPSQTLSLTCTVSGYSITSDHAWSWVRQPPGRGLEWIGYISYSGITTYNPSLKSRVTMLRDTSKNQFSLRLSSVTAADTAVYYCARSLARTTAMDYWGQGSLVTVSS[human IgG1 constant region with N434R (EU numbers) omitted here]
light: B1 light
notes: copies: 2 + 2
hTRIM21 binding level ratio (variant/control antibody) [1]: 0.399 | mTRIM21 binding level ratio (variant/control antibody) [2]: -0.045 | hFcRn binding level ratio (variant/control antibody) (human FcRn): 0.32

B3: MRAH-G1d/MRAL-KT0 Q311E (antibody, human IgG1, kappa)
heavy: QVQLQESGPGLVRPSQTLSLTCTVSGYSITSDHAWSWVRQPPGRGLEWIGYISYSGITTYNPSLKSRVTMLRDTSKNQFSLRLSSVTAADTAVYYCARSLARTTAMDYWGQGSLVTVSS[human IgG1 constant region with Q311E (EU numbers) omitted here]
light: B1 light
notes: copies: 2 + 2
hTRIM21 binding level ratio (variant/control antibody) [1]: 0.486 | mTRIM21 binding level ratio (variant/control antibody) [2]: 1.04 | hFcRn binding level ratio (variant/control antibody) (human FcRn): 0.44

B4: MRAH-G1d/MRAL-KT0 Q311F (antibody, human IgG1, kappa)
heavy: QVQLQESGPGLVRPSQTLSLTCTVSGYSITSDHAWSWVRQPPGRGLEWIGYISYSGITTYNPSLKSRVTMLRDTSKNQFSLRLSSVTAADTAVYYCARSLARTTAMDYWGQGSLVTVSS[human IgG1 constant region with Q311F (EU numbers) omitted here]
light: B1 light
notes: copies: 2 + 2
hTRIM21 binding level ratio (variant/control antibody) [1]: 1.06 | mTRIM21 binding level ratio (variant/control antibody) [2]: 2.81 | hFcRn binding level ratio (variant/control antibody) (human FcRn): 0.76

B5: MRAH-G1d/MRAL-KT0 Q311N (antibody, human IgG1, kappa)
heavy: QVQLQESGPGLVRPSQTLSLTCTVSGYSITSDHAWSWVRQPPGRGLEWIGYISYSGITTYNPSLKSRVTMLRDTSKNQFSLRLSSVTAADTAVYYCARSLARTTAMDYWGQGSLVTVSS[human IgG1 constant region with Q311N (EU numbers) omitted here]
light: B1 light
notes: copies: 2 + 2
hTRIM21 binding level ratio (variant/control antibody) [1]: 0.782 | mTRIM21 binding level ratio (variant/control antibody) [2]: 2.64 | hFcRn binding level ratio (variant/control antibody) (human FcRn): 0.2

B6: MRAH-G1d/MRAL-KT0 T437D (antibody, human IgG1, kappa)
heavy: QVQLQESGPGLVRPSQTLSLTCTVSGYSITSDHAWSWVRQPPGRGLEWIGYISYSGITTYNPSLKSRVTMLRDTSKNQFSLRLSSVTAADTAVYYCARSLARTTAMDYWGQGSLVTVSS[human IgG1 constant region with T437D (EU numbers) omitted here]
light: B1 light
notes: copies: 2 + 2
hTRIM21 binding level ratio (variant/control antibody) [1]: 1.34 | mTRIM21 binding level ratio (variant/control antibody) [2]: 2.19 | hFcRn binding level ratio (variant/control antibody) (human FcRn): 0.91

B7: MRAH-G1d/MRAL-KT0 Q311D (antibody, human IgG1, kappa)
heavy: QVQLQESGPGLVRPSQTLSLTCTVSGYSITSDHAWSWVRQPPGRGLEWIGYISYSGITTYNPSLKSRVTMLRDTSKNQFSLRLSSVTAADTAVYYCARSLARTTAMDYWGQGSLVTVSS[human IgG1 constant region with Q311D (EU numbers) omitted here]
light: B1 light
notes: copies: 2 + 2
hTRIM21 binding level ratio (variant/control antibody) [1]: 0.345 | mTRIM21 binding level ratio (variant/control antibody) [2]: 1.03 | hFcRn binding level ratio (variant/control antibody) (human FcRn): 0.67

B8: MRAH-G1d/MRAL-KT0 Q311M (antibody, human IgG1, kappa)
heavy: QVQLQESGPGLVRPSQTLSLTCTVSGYSITSDHAWSWVRQPPGRGLEWIGYISYSGITTYNPSLKSRVTMLRDTSKNQFSLRLSSVTAADTAVYYCARSLARTTAMDYWGQGSLVTVSS[human IgG1 constant region with Q311M (EU numbers) omitted here]
light: B1 light
notes: copies: 2 + 2
hTRIM21 binding level ratio (variant/control antibody) [1]: 0.953 | mTRIM21 binding level ratio (variant/control antibody) [2]: 2.55 | hFcRn binding level ratio (variant/control antibody) (human FcRn): 1.42

B9: MRAH-G1d/MRAL-KT0 Q311K (antibody, human IgG1, kappa)
heavy: QVQLQESGPGLVRPSQTLSLTCTVSGYSITSDHAWSWVRQPPGRGLEWIGYISYSGITTYNPSLKSRVTMLRDTSKNQFSLRLSSVTAADTAVYYCARSLARTTAMDYWGQGSLVTVSS[human IgG1 constant region with Q311K (EU numbers) omitted here]
light: B1 light
notes: copies: 2 + 2
hTRIM21 binding level ratio (variant/control antibody) [1]: 0.791 | mTRIM21 binding level ratio (variant/control antibody) [2]: 2.98 | hFcRn binding level ratio (variant/control antibody) (human FcRn): 1.01

B10: MRAH-G1d/MRAL-KT0 N434Q (antibody, human IgG1, kappa)
heavy: QVQLQESGPGLVRPSQTLSLTCTVSGYSITSDHAWSWVRQPPGRGLEWIGYISYSGITTYNPSLKSRVTMLRDTSKNQFSLRLSSVTAADTAVYYCARSLARTTAMDYWGQGSLVTVSS[human IgG1 constant region with N434Q (EU numbers) omitted here]
light: B1 light
notes: copies: 2 + 2
hTRIM21 binding level ratio (variant/control antibody) [1]: 0.608 | mTRIM21 binding level ratio (variant/control antibody) [2]: 0.415 | hFcRn binding level ratio (variant/control antibody) (human FcRn): 0.98

B11: MRAH-G1d/MRAL-KT0 Q311L (antibody, human IgG1, kappa)
heavy: QVQLQESGPGLVRPSQTLSLTCTVSGYSITSDHAWSWVRQPPGRGLEWIGYISYSGITTYNPSLKSRVTMLRDTSKNQFSLRLSSVTAADTAVYYCARSLARTTAMDYWGQGSLVTVSS[human IgG1 constant region with Q311L (EU numbers) omitted here]
light: B1 light
notes: copies: 2 + 2
hTRIM21 binding level ratio (variant/control antibody) [1]: 0.562 | mTRIM21 binding level ratio (variant/control antibody) [2]: 1.97 | hFcRn binding level ratio (variant/control antibody) (human FcRn): 1.15

B12: MRAH-G1d/MRAL-KT0 N434V (antibody, human IgG1, kappa)
heavy: QVQLQESGPGLVRPSQTLSLTCTVSGYSITSDHAWSWVRQPPGRGLEWIGYISYSGITTYNPSLKSRVTMLRDTSKNQFSLRLSSVTAADTAVYYCARSLARTTAMDYWGQGSLVTVSS[human IgG1 constant region with N434V (EU numbers) omitted here]
light: B1 light
notes: copies: 2 + 2
hTRIM21 binding level ratio (variant/control antibody) [1]: 0.388 | mTRIM21 binding level ratio (variant/control antibody) [2]: 0.101 | hFcRn binding level ratio (variant/control antibody) (human FcRn): 0.84
